PubChem BioAssay AID686971 (National Center for Advancing Translational Sciences (NCATS), 2013)
Out of some 360,000 compounds screened, about 7,500 (2.1%) were called active. This list was built around the results that the source calls inconclusive (neither active nor inactive); the mix of calls is not that of the screen. The call rests on the fitted dose curve; in most records, active means well fitted cell-killing curve with a large enough effect; inconclusive means small, poorly fitted or top-dose-only effect, or effect the other way, or another doubt; inactive means no such curve, though single readings can be large or run the other way. Potencies of inconclusive entries are left out as doubtful fits.
Potency means the concentration at half of the fitted maximal effect; tags describe the fitted curve by direction and shape.

Assay: qHTS for induction of synthetic lethality in tumor cells producing 2HG: qHTS for the HT-1080-IDH1KD cell line;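 on activity, negative = toxicity: 0% = DMSO wells and -100% = cell-free medium wells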
Conditions: HT-1080 IDH1 knockdown viability, ATP luminescence, 48 h; activity, negative = toxicity: at 46.1 µM (top of the series) unless noted
Outline: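 HT-1080-IDH1KD cells (IDH1 knocked down), 750/well in RPMI with 5% FBS, treated with compound 48 h at 37 degrees C. Viability by CellTiter-Glo luminescence, normalised to DMSO and no-cell wells; concentration-response curves classed.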
With O=C(/C=C/NNC(=O)c1ccc(Br)cc1)c1ccccc1 the Potency was inconclusive [cytotoxic, single point].
For CCOC(=O)c1cc(-c2sc(NC(=O)c3ccccc3)nc2C)n(Cc2ccccc2)n1, the Potency was inconclusive [cytotoxic, single point].
For O=C1c2ccccc2/C(=C\c2ccc(Br)s2)N1c1ccccc1, the “activity, negative = toxicity” value was inactive: -9.63%.
With O=C(c1cccs1)N1C[C@@H](n2cc(C3CC3)nn2)[C@H](O)C[C@@H]1c1ccccc1 the “activity, negative = toxicity” value was inactive: 0.799%.
In the case of C=C1C2=C(C(=O)N1OC)[C@@H](O)[C@@](C)(O)[C@@H](CCCCC)O2, the Potency is reported as inconclusive [cytotoxic, single point].
For CCn1ncc(/C=N/NC(=O)c2ccc3c(c2)OCO3)c1C, the Potency was inconclusive [cytotoxic, single point].
In the case of CCO[C@H]1OC(C(=O)N2CCN(Cc3ccc4c(c3)OCO4)CC2)=C[C@@H](c2ccc(C(F)(F)F)cc2)[C@@H]1CCCO, the Potency is reported as inconclusive [cytotoxic, partial curve, poor fit].
With CCOC(=O)Cn1cc(C(=O)C(C)(C)C)c2ccccc21 the “activity, negative = toxicity” value was inactive: -1.92%.
With C=CCNc1nc2cc(-c3ccc(C(=O)N4CCOCC4)cc3)sc2c(=O)n1C the Potency was inconclusive [cytotoxic, partial curve].
For CC1(C(=O)Nc2ccc3c(c2)OCCO3)CCN1C(=O)C1(c2ccc(Cl)cc2)CCC1 (centres undefined), the Potency was inconclusive [cytotoxic, single point].
In the case of O=C(NC(=S)NCc1ccc(-c2nc3ccccc3s2)cc1)c1ccco1, the Potency is reported as inconclusive [cytotoxic, single point].
With O=C(NCc1cccc(C(F)(F)F)c1)c1csc([C@@H]2O[C@H](CO)[C@H](O)[C@H](O)[C@H]2O)n1 the Potency was inconclusive [rising, single point].
For N/C(=N\OC(=O)c1ccc(Cl)c([N+](=O)[O-])c1)c1ccccn1, the Potency was active: 16.4 µM.
For COc1ccc(/C=C2\SC(=S)N(NS(=O)(=O)c3ccccc3)C2=O)c(OC)c1, the “activity, negative = toxicity” value was inactive: 1.21%.
In the case of CCOC(=O)N1CCC(NC(=O)c2cc3c(-c4ccccc4F)nn(C)c3s2)CC1, the “activity, negative = toxicity” value is reported as inactive: 9.73%.
In the case of Cc1c(C(=O)NCc2ccc3c(c2)OCO3)sc(=O)n1Cc1ccc(S(=O)(=O)N(C)C)cc1, the Potency is reported as inconclusive [cytotoxic, single point].
For Cc1ccc(S(=O)(=O)c2nnn3c2nc(N2CCOCC2)c2ccccc23)c(C)c1, the “activity, negative = toxicity” value was inactive: -3.68%.
For CCN(CC)CCNC(=O)c1[nH]c2ccc(OCc3ccccc3)cc2c1C, the Potency was inconclusive [cytotoxic, single point].
For O=C1C(=C2CCCCC2)SC(=S)N1Cc1ccco1, the Potency was inconclusive [cytotoxic, partial curve, poor fit].
With CCCN(CCC)C(=O)CC(c1ccccc1)c1cc(C)ccc1O (centres undefined) the Potency was inconclusive [cytotoxic, single point].
In the case of COc1ccc2ccccc2c1C(O)c1nccn1C (centres undefined), the Potency is reported as inconclusive [cytotoxic, single point].
For CC(C)n1cc(NC(=O)COc2ccccc2Cl)cn1, the activity, negative = toxicity was inconclusive: 14.4%.
In the case of CC(=O)Nc1ccc(N=Cc2c(O)c(C(=O)Nc3ccccc3)cc3ccccc23)cc1, the Potency is reported as inconclusive [cytotoxic, single point].
With COc1ccc(OC)c(NC(=O)C(=O)NNC(=O)C23CC4CC(CC(C4)C2)C3)c1 the Potency was inconclusive [cytotoxic, partial curve].
With CC(C)C(Cl)=NOC(=O)Nc1ccc(S(N)(=O)=O)cc1 the Potency was inconclusive [cytotoxic, single point].
With Oc1ccc(Cl)cc1CNCc1cccc2ccccc12 the “activity, negative = toxicity” value was inactive: 5.2%.
In the case of COc1ccc(NC(=O)C2(C)Cc3c(-c4ccc(NC(C)=O)cc4)ccnc3O2)cn1 (centres undefined), the Potency is reported as inconclusive [cytotoxic, partial curve].
In the case of C=CCn1c(SCC(N)=O)nnc1-c1cccc(Br)c1, the “activity, negative = toxicity” value is reported as inactive: 5.2%.
For CC(C)C1Cc2c(sc3[nH]c(=S)n(Cc4ccccc4)c(=O)c23)CO1 (centres undefined), the Potency was inconclusive [cytotoxic, single point].
For CNC(=S)N=Nc1c(O)[nH]c2ccc(C(C)C)cc12, the “activity, negative = toxicity” value was inactive: -1.48%.
For Fc1ccc(CNn2cnnc2SCc2ccc(F)cc2)cc1, the Potency was inconclusive [cytotoxic, partial curve].
With CN1CCN(C2=C(Cl)C(=O)N(c3ccc(Cl)cc3)C2=O)CC1 the Potency was inconclusive [cytotoxic, single point].
For Cc1ccc(C(=O)CSc2nnc(COc3cccc4cccnc34)o2)cc1, the Potency was inconclusive [cytotoxic, single point].
In the case of COc1cccc(C(C)(O)c2nc(-c3cc(F)cc(F)c3)cs2)c1 (centres undefined), the Potency is reported as inconclusive [cytotoxic, single point].
In the case of Cc1nc([N+](=O)[O-])c(Br)n1Cc1ccccc1, the Potency is reported as inconclusive [cytotoxic, single point].
For Cc1cc(C(=O)CCl)c(C)n1-c1c(C)n(C)n(-c2ccccc2)c1=O, the Potency was inconclusive [cytotoxic, single point].
In the case of COc1cccc(-c2csc(N3CCN(CC(=O)NNC(=O)c4ccc(Br)cc4)CC3)n2)c1, the Potency is reported as inconclusive [cytotoxic, partial curve].
In the case of O=C(c1ccc(CSc2nc3ccncc3[nH]2)cc1)N1CCCCCC1, the Potency is reported as inconclusive [cytotoxic, partial curve].
With CCOC(=O)c1ccc(NC(=O)C2CCCN(S(=O)(=O)c3ccc(F)cc3)C2)cc1 (centres undefined) the Potency was inconclusive [cytotoxic, single point].
In the case of Oc1ccc(-c2csc(Nc3ccccn3)n2)c(O)c1, the Potency is reported as inconclusive [cytotoxic, partial curve].
For CNC(=O)Nc1ccc2nc(C)oc2c1, the “activity, negative = toxicity” value was inactive: 5.73%.
For CCOC(=O)C1(CCOc2ccccc2)CCN(Cc2ccc(-n3cccn3)cc2)CC1, the Potency was inconclusive [cytotoxic, single point].
In the case of O=C(C[C@H]1C[C@@H]2c3cc(NC(=O)C4CCC4)ccc3O[C@@H]2[C@H](CO)O1)NC1CCCCC1, the “activity, negative = toxicity” value is reported as inactive: 10.6%.
In the case of O=C(CC1C(=O)CCCC1=O)c1ccccc1, the Potency is reported as inconclusive [cytotoxic, single point].
With S=C(Nc1cc(Cl)cc(Cl)c1)N1CCN(c2ccccn2)CC1 the activity, negative = toxicity was inconclusive: -31.3% [cytotoxic].
In the case of NC(CSC(c1ccccc1)(c1ccccc1)c1ccccc1)C(=O)O (centres undefined), the Potency is reported as inconclusive [cytotoxic, full curve, poor fit].
With CCCN1C(=O)c2[nH]nc(-c3cc(Cl)c(C)cc3O)c2C1c1ccc(O)c(OC)c1 (centres undefined) the Potency was active: 16.4 µM.
With COc1ccc(C)cc1S(=O)(=O)NC(C)C(=O)Nc1ccc2c(c1)OCO2 (centres undefined) the “activity, negative = toxicity” value was inactive: 6.37%.
For O=C(Nc1nc2ccc(F)cc2s1)c1ccccn1, the Potency was active: 8.2 µM.
With Cc1cnc(NC(=O)Cc2ccccc2F)s1 the “activity, negative = toxicity” value was inactive: -7.19%.
With c1ccc(CN2CCOCC2)cc1 the “activity, negative = toxicity” value was inactive: 11.5%.
With COC(=O)C1(C(=O)OC)c2cc3c(cc2CN(S(=O)(=O)c2ccc(C)cc2)C1CC(C)=O)OCO3 (centres undefined) the “activity, negative = toxicity” value was inactive: -7.33%.
In the case of CN(C)/C=C/C(=O)/C=C/c1cn(-c2ncc(C(F)(F)F)cc2Cl)c2ccccc12, the Potency is reported as inconclusive [cytotoxic, single point].
In the case of CCCCN(CCCC)S(=O)(=O)c1ccc(NC(=O)Cc2cccs2)cc1, the Potency is reported as inconclusive [cytotoxic, single point].
With CCc1ccc(N/C(=N/c2nc(C)cc(C)n2)NC(C)=O)cc1 the “activity, negative = toxicity” value was inactive: -2.01%.
With COc1c(C=O)c2c(c(OC)c1OC)-c1ccc(OC)c(=O)cc1C(NC(C)=O)CC2 (centres undefined) the Potency was inconclusive [cytotoxic, full curve].
With NC(=O)N=Nc1c(O)[nH]c2ccc([N+](=O)[O-])cc12 the “activity, negative = toxicity” value was inactive: 0.581%.
For N#CC1=C(N)Oc2cc(N)ccc2C1c1ccccc1 (centres undefined), the Potency was inconclusive [cytotoxic, single point].
With Cc1sc2ncnc(NCCc3ccc(S(N)(=O)=O)cc3)c2c1C the Potency was inconclusive [cytotoxic, partial curve, poor fit].
With Cc1nc(C(F)(F)F)ccc1C(=O)N1CCC1(C)C(=O)NS(=O)(=O)c1cccc(Cl)c1 (centres undefined) the Potency was inconclusive [rising, single point].
With CCS(=O)(=O)n1nc(-c2ccccc2)nc1SC the activity, negative = toxicity was inactive: 5.58% [at 9.24 µM].
In the case of CCCc1cc(=O)oc2cc(OCC(=O)NCCc3c[nH]c4ccccc34)ccc12, the Potency is reported as inconclusive [cytotoxic, single point].
With COc1ccc(CNC(=O)Nc2nc(C(N)c3ccccc3)cs2)cc1 (centres undefined) the Potency was inconclusive [cytotoxic, single point].
With COc1ccc(-c2csc(NC(=O)C3CC(=O)N(c4ccc5c(c4)OCCO5)C3)n2)cc1 (centres undefined) the Potency was inconclusive [cytotoxic, single point].
For C/C(=N\NC(=O)Cc1ccc(Cl)cc1)c1ccccn1, the Potency was active: 2.51 µM.
In the case of C=CCn1c(-c2ccccc2)nc2nc3ccccc3nc21, the “activity, negative = toxicity” value is reported as inactive: 10.5%.
For O=C(Nc1ccc(NC(=O)C2CC2)cn1)c1ccccc1Cl, the Potency was inconclusive [cytotoxic, single point].
With Cc1ccccc1C(=O)Nc1ccc(N2CCCCCC2)cc1 the Potency was active: 14.6 µM.
In the case of COC(=O)[C@]1(C)N[C@H](c2ccc(-c3ccc(Cl)c(Cl)c3)c(OC)c2)[C@@H]2C(=O)N(C)C(=O)[C@@H]21, the Potency is reported as inconclusive [cytotoxic, single point].
